Laboratory results published in paper PMC4336329 (PLoS ONE, 2015).
Screen size: about 310,000 compounds; about 2,200 (0.71%) showed an effect of 50% or more. Effects have a minus sign here. Some of the results follow.

molecular target: human ether-à-go-go-related gene (hERG) potassium channel (human, UniProt Q12809); assay: primary screen, population patch clamp on CHO cells stably expressing hERG
Sequence (Q12809 whole entry, looked up): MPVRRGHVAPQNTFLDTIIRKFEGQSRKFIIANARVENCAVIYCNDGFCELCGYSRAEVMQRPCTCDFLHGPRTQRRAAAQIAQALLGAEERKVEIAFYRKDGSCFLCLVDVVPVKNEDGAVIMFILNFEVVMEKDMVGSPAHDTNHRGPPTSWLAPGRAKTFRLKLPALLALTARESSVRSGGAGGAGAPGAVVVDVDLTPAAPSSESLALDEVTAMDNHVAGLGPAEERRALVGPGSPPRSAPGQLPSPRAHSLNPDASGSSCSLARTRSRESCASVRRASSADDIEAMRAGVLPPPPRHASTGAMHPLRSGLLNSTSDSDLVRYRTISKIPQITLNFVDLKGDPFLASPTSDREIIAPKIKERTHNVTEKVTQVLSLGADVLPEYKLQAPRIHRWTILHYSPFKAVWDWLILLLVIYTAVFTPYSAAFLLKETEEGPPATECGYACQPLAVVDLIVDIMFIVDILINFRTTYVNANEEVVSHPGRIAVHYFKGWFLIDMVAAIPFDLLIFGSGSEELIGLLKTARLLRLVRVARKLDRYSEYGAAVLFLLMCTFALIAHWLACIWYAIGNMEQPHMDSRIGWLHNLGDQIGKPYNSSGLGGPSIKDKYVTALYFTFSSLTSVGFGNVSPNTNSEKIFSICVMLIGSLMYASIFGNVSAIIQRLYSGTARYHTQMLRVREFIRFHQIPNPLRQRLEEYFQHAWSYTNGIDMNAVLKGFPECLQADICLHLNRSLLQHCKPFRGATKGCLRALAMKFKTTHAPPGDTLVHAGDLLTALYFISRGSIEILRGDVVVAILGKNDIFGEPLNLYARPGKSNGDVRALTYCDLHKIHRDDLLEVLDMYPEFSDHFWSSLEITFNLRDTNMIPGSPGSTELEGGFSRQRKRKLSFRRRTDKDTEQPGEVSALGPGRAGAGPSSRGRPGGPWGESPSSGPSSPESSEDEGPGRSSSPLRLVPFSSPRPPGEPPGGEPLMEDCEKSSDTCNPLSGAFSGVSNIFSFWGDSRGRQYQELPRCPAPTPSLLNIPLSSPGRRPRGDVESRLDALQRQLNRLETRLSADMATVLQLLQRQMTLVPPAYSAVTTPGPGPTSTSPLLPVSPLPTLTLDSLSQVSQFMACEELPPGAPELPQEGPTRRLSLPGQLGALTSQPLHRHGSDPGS

SMILES	hERG current change (%, negative = inhibition) at 1uM
Cc1n[nH]c(C)c1CCNC(=O)C1CCC(=O)N(Cc2ccccc2F)C1 (centres unmarked)	18.6%
CCN(CC)C(=O)c1ccccc1NC(=O)c1ccccc1	6.47%
COCC1CCN(Cc2nc(-c3ccc(OC)cc3)no2)CC1	10.1%
COc1ccc(NCC(=O)N/N=C/c2c(C)nn(Cc3ccccc3)c2Cl)cc1	6.64%
CCSc1nnc(NC(=O)Cc2cc(OC)c(OC)c(OC)c2)s1	-7.45%
CC(C)[C@H](NC(=O)c1ccco1)C(=O)OCC(=O)Nc1ccccc1OC(F)F	12.3%
COc1cc(/C=N/NC(N)=O)ccc1OCC(=O)Nc1ccc(C)c(C)c1	3.17%
Cc1ccccc1NC(=S)NC(C)C(c1ccccc1)N1CCN(C)CC1 (centres unmarked)	2.12%
COc1cccc(Cn2c(=S)[nH]c3ccc(N4CCOCC4)cc3c2=O)c1	-3.31%
COc1ccc(-c2cnc(NCc3cc4c(cc3[N+](=O)[O-])OCO4)n2C)cc1	-10.3%
O=C(CNC(=O)c1cccc(F)c1)OCc1cc(=O)n2cc(Br)ccc2n1	15%
COc1ccc(-c2cn(-c3ccc(C)c(Cl)c3)c(=S)[nH]2)cc1OC	15%
CC(C)CNC(=O)C(=O)NN=C1CCCCCC1	10.1%
O=C(CSc1nc2ccccc2c(=O)n1-c1ccccc1)N1CCN(CCO)CC1	18.5%
Cc1ccc(NC(=O)CN(C)C(=O)Cn2cc(C(F)(F)F)ccc2=O)cc1	0.887%
COC(=O)N1[C@H](Cc2ccccc2)C=C[C@]1(C)C(=O)NCc1ccccn1	13.8%
Cn1c(=O)n(C)c2cc(S(=O)(=O)NCC(=O)O)ccc21	4.84%
Cc1ccc(NS(=O)(=O)c2cccc(C(=O)O)c2)c(C)c1	14.3%
O=C(NCc1ccc(N2CCCC2=O)cc1)c1cnccn1	24.9%
COc1ccc(-c2nn(-c3ccccc3)cc2C(=O)Nc2nccs2)cc1	-10.2%
COc1cc(Cl)ccc1OCc1cc(C(=O)N2C[C@]3(C)C[C@H]2CC(C)(C)C3)no1	1.34%
CCC1=Nc2cc(C(=O)NCc3ccco3)ccc2Sc2ccc(C)cc21	12.4%
COc1ccc(CNc2nc(NCc3ccc(OC)cc3)n(C(=O)c3ccccc3[N+](=O)[O-])n2)cc1	-0.736%
COc1ccc(C(=O)CCC(=O)N2CCN(c3ccc(N4CCOCC4)nn3)CC2)cc1	1.27%
CCN(CC)S(=O)(=O)c1ccc(Cl)c(NC(=O)COC(=O)/C=C/c2ccc(O)c(OC)c2)c1	0.792%
COc1cccc(NC(=S)Nc2cccnc2)c1	4.79%
CCC(Sc1nc2ccccc2o1)C(=O)Nc1nnc(C)s1 (centres unmarked)	-6.09%

SMILES	hERG current change (%, negative = inhibition) at 1uM
CCN(C(=S)NC(=O)c1ccccc1Br)C1CCCCC1	12.6%
C#CCNC(=O)C1=C[C@H](c2ccc3c(c2)OCO3)[C@@H](CCCO)[C@H](OCC)O1	10.9%
Cc1nn(Cc2ccc(Cl)cc2)c2sc(C(=O)O)cc12	17.5%
N#CC1=C(N)Oc2cc(O)ccc2C1c1ccncc1 (centres unmarked)	12.3%
CCCC(=O)Nc1cc(C)c2c(=O)oc3ccccc3c2n1	12.4%
Cc1ccc(S(=O)(=O)N2CCCCC2)cc1NC(=O)CNc1ccccc1N1CCCC1=O	5.66%
Cc1ccc(C)c(NC(=O)CSc2nnc(-c3cc(C)[nH]n3)n2N)c1	2.68%
O=C(c1ccncc1)N1N=C2CCCCCC2C1(O)C(F)(F)F (centres unmarked)	6.66%
O=C(Cc1ccc(F)cc1)OCN1C(=O)c2ccccc2C1=O	8.23%
O=C1CCCC(O)=C1C=Nc1ccc2c(c1)oc1ccccc12	14.6%
FC(F)(F)c1cnc(-c2cnc(-c3cccnc3)nc2)c(Cl)c1	11.2%
Cc1ccc(OCC(=O)OCC(=O)c2cccc([N+](=O)[O-])c2)cc1C	0.885%
COc1ccc(NC(=O)Cn2nnc(C(=O)NCc3ccc(C)cc3)c2N)cc1Cl	11.4%
CCN1CCN(CC(=O)N2c3ccccc3CC2C)CC1.O=C(O)C(=O)O (centres unmarked)	14.3%
COc1ccc(C(=O)Oc2cccc(Nc3ncnc4ccccc34)c2)cc1OC	12.1%
COc1ccc(CCNC(=O)COC(=O)c2cnc(C)cn2)cc1OC	16.7%
COCCNC(=O)CNC(c1ccccc1)c1ccccc1.O=C(O)C(=O)O	7.42%
CCC1=C(OC(=O)N(CC)CC)N2C(=O)OC(=NCC(=O)OC)[C@]2(Cc2ccccc2)[C@H]2C1=CC[C@H]1C(=O)N(c3ccccc3)C(=O)[C@H]12	3.75%
Cc1ccccc1N(CC(=O)NCc1ccc2c(c1)OCO2)C(=O)C1CSC(=O)C1 (centres unmarked)	10.9%
Nc1ccc(C(=O)OC2CCOC2=O)cc1[N+](=O)[O-] (centres unmarked)	8.21%
CC(C)c1nc2ccccc2n1CC(O)COC1CCCCC1 (centres unmarked)	10.1%
COc1ccccc1-n1c(SCC(=O)Nc2ccc3c(c2)OCO3)nc2c(c1=O)SCC2	-0.652%
C=CC[N@@+]12CC[C@]34c5ccccc5N5/C=C6\C7N(/C=C(\C53)[C@@H](C[C@@H]41)/C(=C/CO)C2)c1ccccc1[C@@]71CC[N@@+]2(CC=C)C/C(=C\CO)[C@@H]6C[C@@H]12.[Cl-] (some centres unmarked)	16.3%
CCOC(=O)c1ccc(Nc2ncnc3c2cnn3C)cc1	-2.39%
O=C(NNC(=O)C1CC1)c1cc2cc3ccccc3nc2s1	11%
Cc1ccc(S(=O)(=O)NNC(=S)NC(C)(C)C)cc1	0.483%
